Test results taken from the BET-seq Pho4 binding data (Le et al. 2018).
Some of the results follow. Values were computed here from the reads of four pooled replicates and scatter widely.

target: T1, Pho4 (S. cerevisiae) (UniProt P07270); experiment: relative binding free energy (BET-seq); higher = weaker binding; conditions: reference: library average
T1 sequence: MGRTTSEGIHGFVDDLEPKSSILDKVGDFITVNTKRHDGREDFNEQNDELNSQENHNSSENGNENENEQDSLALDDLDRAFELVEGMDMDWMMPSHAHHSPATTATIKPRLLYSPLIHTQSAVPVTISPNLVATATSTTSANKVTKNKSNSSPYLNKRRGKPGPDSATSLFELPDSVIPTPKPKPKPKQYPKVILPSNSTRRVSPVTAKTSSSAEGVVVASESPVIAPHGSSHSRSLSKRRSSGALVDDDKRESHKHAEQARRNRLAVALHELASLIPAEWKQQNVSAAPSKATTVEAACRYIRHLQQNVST

| Sequence | relative binding free energy [kcal/mol] |
| --- | --- |
| TAGGTCACGTGTTTTG | 0.25 |
| ATTCGCACGTGGTGTA | -0.23 |
| ATTTGCACGTGTTCGA | 0.01 |
| GATCGCACGTGCTGTG | 0.01 |
| GAGGGCACGTGGCATT | -0.26 |
| CGGTTCACGTGGTTAT | 0.32 |
| TCAATCACGTGGATGT | 0.21 |
| GATCGCACGTGTGGTA | 0.13 |
| TGGTTCACGTGACGAT | 0.38 |
| CGGCTCACGTGCGGGG | 0.1 |
| GTTAACACGTGAGGAA | 0.42 |
| TATCGCACGTGGTAGT | -0.1 |
| TGATGCACGTGGAGGC | -0.17 |
| TGGGACACGTGGACGG | 0.14 |
| GACGGCACGTGGCGTT | -0.03 |
| GGGAGCACGTGTCGAG | 0.03 |
| TAGGGCACGTGGGAAG | -0.11 |
| TTCTGCACGTGGGGCA | -0.2 |
| AAAGGCACGTGGGGGG | -0.17 |
| GTGGACACGTGAGTAA | 0.08 |
| TGGAGCACGTGTGGCG | -0.07 |
| GGGTGCACGTGAATTT | 0.21 |
| GAGTTCACGTGGGCTT | 0.32 |

| Sequence | relative binding free energy [kcal/mol] |
| --- | --- |
| GAGTGCACGTGATGAG | 0.32 |
| GGGGTCACGTGCTGGT | 0.05 |
| AGGTTCACGTGAACTT | 0.33 |
| CTAGGCACGTGGTGGC | -0.22 |
| ATGCGCACGTGGGTTT | -0.14 |
| TTGGTCACGTGATCGG | 0.19 |
| TGGTACACGTGTGTGT | 0.04 |
| TGTAACACGTGAGATG | 0.28 |
| AGCGTCACGTGGGAGT | 0.18 |
| GCATTCACGTGGGATT | 0.22 |
| GTTGGCACGTGAATGG | 0.31 |
| AATTTCACGTGGTACG | 0.14 |
| TTTTACACGTGGGGCC | 0.1 |
| GGTATCACGTGGAGGT | 0.24 |
| ATTTCCACGTGTTTAA | 0.09 |
| TTGTGCACGTGTTGCC | 0.02 |
| ACTGCCACGTGGGGGG | -0.25 |
| TTGAACACGTGGGAAT | 0.14 |
| TGGCTCACGTGGGGCA | 0.14 |
| GAAGTCACGTGGGATA | 0.02 |
| CTGGTCACGTGAGGAA | 0.43 |
| ATCTGCACGTGTCGGG | -0.1 |
| GTTTTCACGTGTCGAG | 0.23 |

| Sequence | relative binding free energy [kcal/mol] |
| --- | --- |
| AGTATCACGTGTTGGT | 0.16 |
| AGGGCCACGTGACGGG | 0.02 |
| ATTATCACGTGATAGA | 0.25 |
| CAGTGCACGTGTTTTA | -0.08 |
| GTGTACACGTGGTTCA | -0.03 |
| ATTGGCACGTGATTGG | -0.04 |
| GGTGGCACGTGGAGCC | 0.02 |
| GGAGGCACGTGAGAGA | 0.18 |
| GTTAACACGTGGTTCG | -0.03 |
| GGTTGCACGTGCGGAG | 0.08 |
| AGTATCACGTGCTGGA | 0.23 |
| GTCGTCACGTGTTTGG | 0.12 |
| TCGGGCACGTGTGGTA | -0.03 |
| AAATTCACGTGTTCGT | 0.19 |
| TAGTTCACGTGTGGTT | 0.32 |
| GGGCTCACGTGGCTGG | 0.29 |
| TACGTCACGTGGTAGT | 0.1 |
| TGGAGCACGTGCGTGG | -0.13 |
| TTGGGCACGTGGTGCT | -0.27 |
| TCAATCACGTGTGGTT | 0.09 |
| ATCGGCACGTGGTTAG | -0.12 |
| GTAGGCACGTGGTGCC | -0.03 |
| CGGGTCACGTGAAGGG | 0.39 |

| Sequence | relative binding free energy [kcal/mol] |
| --- | --- |
| TAATTCACGTGTATGG | 0.29 |
| GGTTTCACGTGTTGCA | 0.3 |
| ATTTGCACGTGTTCCG | 0.07 |
| AGCATCACGTGAGGGT | 0.13 |
| GTGGTCACGTGGTTCG | 0.18 |
| TCTATCACGTGGGTTT | 0.08 |
| GTGGTCACGTGATTAA | 0.31 |
| TATCTCACGTGGGAGG | 0.2 |
| CGGTTCACGTGAGAGG | 0.47 |
| AAGTGCACGTGAAGGT | 0.13 |
| TTGGGCACGTGGGGAA | -0.23 |
| TAACTCACGTGTGTGA | 0.38 |
| GGGGCCACGTGGTATA | -0.06 |
| TGGGACACGTGTTATG | 0.16 |
| ATAGTCACGTGTGGGT | 0.14 |
| GGATTCACGTGCATTG | 0.32 |
| TTTATCACGTGGATCG | 0.18 |
| TTGAACACGTGGCATG | -0.03 |
| GTGGTCACGTGTTATC | 0.25 |
| CTAGGCACGTGGGATA | -0.15 |
| TTTCGCACGTGTTGTT | -0.07 |
| CTGTGCACGTGATGTT | -0.05 |
| CGAGTCACGTGTTAGT | 0.09 |

| Sequence | relative binding free energy [kcal/mol] |
| --- | --- |
| TTATGCACGTGTCTTT | -0.09 |
| ATTGGCACGTGAGGTT | 0.2 |
| GGTGGCACGTGGAGGC | -0.07 |
| TTTACCACGTGAAGGT | 0.22 |
| GTTACCACGTGCGTGG | 0.06 |
| GGGTGCACGTGGTAAA | -0.01 |
| TAAGGCACGTGTGTAG | -0.08 |
| AGTGTCACGTGAGGGG | 0.2 |
| TTGGGCACGTGGTATC | -0.1 |
| ATAGCCACGTGGGGTA | -0.34 |
| TTAAGCACGTGGTATC | -0.27 |
| AGTGGCACGTGGGGTC | -0.31 |
| TTGGGCACGTGTGAAT | -0.09 |
| TGTTTCACGTGGTCTA | 0.24 |
| GGGCTCACGTGCAGTG | 0.18 |
| AGGTGCACGTGTCGTT | -0.03 |
| TCATGCACGTGGAGTA | 0.03 |
| AATGGCACGTGGCGAT | -0.07 |
| TTTTTCACGTGATATC | 0.23 |
| TGTTTCACGTGGATTC | 0.25 |
| TCTGACACGTGGTTGA | -0.06 |
| TGTTTCACGTGAATCT | 0.35 |
| TCTGTCACGTGAGTTA | 0.34 |
